Reference: the RNAGym collection of RNA variant scans (doi:10.7554/elife.90254)
Read counts are not given, so values of variants with three or more changes are uncertain.

B1: OR4K15 (parent)
chain: GUUAACGGUCAUAGGCCAUGGAAACUAGGAGCACCAUUUCGCUGCCAGUGAAGAAAUGAACAAAGAAAAUCUGGGCCAGGCAGGCAUCAAAAGAAAUAGUCUUGCGCUCAACCAGAAAGUCUGUAAUCAUUUUAAGGGUA

Variants of: B1
Assay: self-cleavage, relative activity (ratio to wild type); higher = more cleavage; in vitro, sequencing; the parent is a self-cleaving ribozyme

Row | Variant | self-cleavage
1 | GUUAGCGGUCAUAGGCCAUGGAGACUAGGAGCACCAUUUCGCUGCCAGCGAAGAAAUGAACAAAGAAAAUCUGGGCCAGGCUGGCAUCAAAAGAGAUAGUCUUGCGCUCAACCAGAAAGUCUGCAAUCAUUUUAAGGGAA [A5G A23G U49C A82U A95G U124C U139A] | 0.3
2 | GUUAACGGUCAUAGGCCAUGGGAACUAGGUGCACCAUUUCGCUGCCAGUGAAGAAAUGAACAAAGAAAAUCUGGGCCAGGCAGGCAUCAAAAGAAAUAGUCUUGCGCUCAACCAGGAAGUCUGUAGUCAUUUUAAGGGUA [A22G A30U A116G A126G] | 0.37
3 | GUUAACGGUCAUAGGCCCUGGAAACUAGGAGCACCAUUUCGCUGCCAGUGAAGGAAUGAACCAAGAAAAUCUGGGCCAGGCAGGCAUCAAGAGAAAUAGUCUUGCGCUCAACCAGAAAGUCUGUAAUCAUUUUAAGGGUA [A18C A54G A62C A91G] | 1.02
4 | GUUAACGGUCAUAGGCCAUGGAAACUAGGAGCACCAUUUCGCUGCCAGUGUAGAAAUGAACAAAGUAAAUCUGGGCCAGGCAGGCUCCAAAAGAAAUAGUCUUGCGCUCAACCAGAAAGUCUGAAAUCAUUUUAAGGGUA [A51U A66U A86U U87C U124A] | 0.23
5 | GUUAACGGUCAUAGGCCAUGGAAACUAGGAGCACAAUUUCGCUGCCAGUGAAGAUAUGAACAAAGAAAAUCUGGGCCAGGCAGGCAUCAAAAGAAAUAGUCUUGCGCUCAACCAGAAAGUCUGUAAUCAUUUUAGGGGUA [C35A A55U A135G] | 1.22
6 | GUUAACGGUCAUAGGCCAUGGAAACUAGAAGCACCAUUUCGCUGCCAGUGUAGAAAUGAACAAAGAAAAUCUGGGCCAGGCAGGCAUCAAGAGAAAUAGUCUUGCGCUCAACCAGAAAGUCCGUAAUCAUUUUAAGGGUA [G29A A51U A91G U122C] | 0.37
7 | GUUAACGGUCAUAGGCCACGGAAACUAGGAGCACCAUUUCACUGCCAGUGAAGAAAUGAACAAAGAAAAUCUGGGCCAGGCAGGCAUCAAAAGAAAUAGUCUUGCGCUCACCCAGAAAGUCUGUAACCAUCUUAAGGGUA [U19C G41A A111C U127C U131C] | 0
8 | GUUAACGGUCAUAGGCCAUGGAAACUAGGAGCACCAUUUCGCUGCCGGUGGAGAAAUGAACAAAGAAGAUCUGGGCCGGGCAGGCAUCAAAAGAAAUAGUCUUGCGCCCAACCAGAAAGUCUGUAAUCAUUUUAAGGGUA [A47G A51G A68G A78G U108C] | 0.02
9 | GUUAACGGUCAUAGGCCAUGGAAACUAGGAGCACCAUUUCGCUGCCAGUAAAGAAAUGGACAACGAAAAUCUGGGCCAGGCAGGCAUCAAAAGAAAUAGUCUUGCGCUCAACCAGAAAGUCUGUAAUCAUUUUAAGGGUA [G50A A59G A64C] | 1.48
10 | GUUAACGGUCAUAGGCCAUGGAAACUAGGAGCACCAUUUCGCUGCCAGUGGAGAAAUGAACAAAGAAAAUCUGGGCCAGGCAGGCAUCAAAAGAAUUAGUCUUGCGCUCAACCAGAAAGCCUGUAAUCAUUUUAAGGGUA [A51G A96U U120C] | 1.27
11 | GUUAACGGUCAUAGGCCAUGGAAACUAGGAGCACCAUUUCGCUGCCAGAGAGGAAAUGAACAAAGAAAAUCUGGGCCAGGCAGGCAUCAAAAGAAAUAGUCUUGCGCUUAACCAGAAAGUCUGUAAUCAUUUUAAGGGUA [U49A A52G C109U] | 0.51
12 | GUUAACGGUCAUAGGCCAUGGAAACUGGGAGCUCCACUUCGCUGCCAGUGAAGAAAUGAGCAAAGAAAAUCUGGGCCAGGCAGGCAUCAAAAGAAAUAGUCUUGCGCUCAACCAGAAAGUCUGUAAUCAUUUUAAGGGUA [A27G A33U U37C A60G] | 0.76
13 | GUUAACGGUCAUAGGCCCUGGAAACUAGGAGCACCAUUUCGCUGCCAGUGACGAAAUGAACAAAGAAAGUCUGGGCCAGGCAGGCUUCAAAAGAAAUAGUCUUGCGCUCAACCAGAAAGUCUGUAAUCAUUUUAAGGGUA [A18C A52C A69G A86U] | 0.1
14 | GUUAACGGUCAUAGGCCUUGGAAACUAGGAGCACCAUUUCGCUGCCAGCGAAGAAAUGAACAAAGAAAAUCUGGGCCAGGCAGGCAUCAAAAGAAAUAGUCUUGCGCUCAACCAGAAGGUCUGUAAUCAUUUUAAGGGUA [A18U U49C A118G] | 0.5
15 | GUUAACGGUCAUAGGCCAUGGAAACUAGGAGCACCAUUUCGCUGCCAGUGGAGAAAUGAACAAAGAAAAUCUGGGCCAGGCAGGCAUCAAAAGGAAUAGUCUUGCGCUCAACCAGAAAGUCUGUAAUCAUUCUAAGGGUA [A51G A94G U132C] | 1.83
16 | GUUAACGGUCAUAGGCCAUGGAAACUAGGAGCACCAUUUCGCUGCCAGCGAAGAAAUGAACGAAGAAAAUCUGGGCCAGGCAGGCAUCAAAAGAAAUAGUCUUGCGCUCAACCUGAAAGUCUGUAAUCAUUUUAAGGGUA [U49C A62G A114U] | 0.08
17 | GUUAACGGUCAUAGGCCACGGAAACUAGGAGCACCAUUUCGCUGCCAGUGAAGAAAUGAACAAAGAAAAUCUGGGCCAGGCAGGCAUCAGAAGAAAUAGUCUUGCGCUCAACCAGAAAGUCUGUACUCAUUUUAAGGGUA [U19C A90G A126C] | 1.47
18 | GUUAACGGUCAUAGGCCAUGGUAACUAGGAGCACCAUUUCGCUGCCAGUGUAGAAAAGAACAAAGAGAAUCUGGGCCAGGCAGGCACCAAGAGAAAUAGUCUUGCGCUCAACCAGAAAGUCUGUAAUCAUUUUAAGGGUA [A22U A51U U57A A67G U87C A91G] | 1.2
19 | GUUAACGGUCAUAGGCCAUGGGAACCAGGAGCACCAUUUCGCUGCCAGUGGAGAAAUGAACAAAGAAAAUCUGGCCCAGGCAGGCAUCAAAAGAAAUAGUCUUGCGCUCAACCAGAAAGUCUGUGAUCAUUUUAAGGGUA [A22G U26C A51G G75C A125G] | 0.07
20 | GUUAACGGUUAUAGGCCAUGGAGCCUAGGAGCACCAUUUCGCUGCCAGUGAAGAAAUGAACAAAGAAAAUCUGGGCCAGGCAGGCAUCAAAAGAAAUAGUCUUGCGCUCAACCAGAAAGUCUGUAAUCAUUUUAAGGGUA [C10U A23G A24C] | 1.97
